Reference: the supplement of paper PMC3334620
The full ranking holds about 33,000 sequences; the median of “E-score (-0.5 to 0.5)” is about -0.016, and the highest 2% start at about 0.32. The list shows a part of the results.

Target: T1, Stp1 (UniProt B3LFK1)
T1 sequence: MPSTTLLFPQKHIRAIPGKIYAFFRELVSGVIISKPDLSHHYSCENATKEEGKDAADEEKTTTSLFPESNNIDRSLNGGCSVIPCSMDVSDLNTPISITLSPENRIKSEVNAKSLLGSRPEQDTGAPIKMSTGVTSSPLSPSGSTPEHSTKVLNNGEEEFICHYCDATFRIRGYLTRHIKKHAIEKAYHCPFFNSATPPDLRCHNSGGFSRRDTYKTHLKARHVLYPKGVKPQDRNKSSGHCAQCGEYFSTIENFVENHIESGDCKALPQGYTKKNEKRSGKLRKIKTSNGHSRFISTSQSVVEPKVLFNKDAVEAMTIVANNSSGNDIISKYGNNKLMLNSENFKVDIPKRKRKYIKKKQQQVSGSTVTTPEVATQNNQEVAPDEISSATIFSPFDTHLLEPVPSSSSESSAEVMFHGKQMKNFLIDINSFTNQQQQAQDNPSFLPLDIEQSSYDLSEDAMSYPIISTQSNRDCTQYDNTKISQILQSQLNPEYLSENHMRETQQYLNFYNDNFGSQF
Experiment: PBM E-score (8-mer binding enrichment) (E-score (-0.5 to 0.5)); higher = stronger / more preferred TF binding; most listed sequences are background and not binding sites
Conditions: protein concentration: 200 nM; construct: GST-full length
In short: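 For each ungapped eight-base word taken together with its reverse complement, the Universal PBM Analysis Suite assigned an E-score. Binding data came from GST-tagged yeast transcription factors, applied at about 100-200 nM, on universal all-10-mer Agilent arrays made double-stranded by primer extension. Fluorescent anti-GST marked bound protein, and scans were normalised with masliner.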

Sequence | PBM E-score
GCTTCCAC | -0.0772
AGTTGGCC | -0.137
ATGCCAGA | 0.128
CGGGCGCC | 0.269
GTGGTCCA | -0.0379
GTGCATAA | 0.183
ACCATGAA | 0.00296
ACCAAACT | -0.0133
ATATATCA | 0.0668
AATTGAGG | -0.0437
AAGATCCT | -0.0555
GCCCAAGA | -0.117
CAAATAAG | 0.0433
AGTAACTA | 0.0847
CGTTATAC | -0.144
CCTCGGCC | -0.0149
ACACCCAC | -0.269
TAAGGGAA | -0.0578
CATCCGGC | -0.133
TTAAAGAA | 0.109
ATTAGATG | 0.201
CATTCAAC | 0.103
ACTTCAAC | 0.0197
AAAAACTA | 0.142
GAGACACA | -0.0919

Sequence | PBM E-score
ATACTCTA | 0.141
AACCCGTC | -0.111
GCAGTAAC | -0.167
GTCGCCGA | 0.0933
CAGTAATG | 0.0578
AGAACCGC | 0.19
AGACACTC | -0.205
CTTAGTCC | -0.023
TCACTAGA | 0.055
CGTGTGGA | 0.016
TACCGCTA | -0.171
TAGCCGAA | 0.00682
ATGAGCCA | -0.0457
CCCCACGC | -0.244
ATGATATC | -0.0953
CGCCGCTC | 0.434
AGGATTGC | -0.169
AAATCCCG | 0.0278
CAGACGGG | -0.242
GACAAATA | 0.176
AGGACTCG | -0.247
CAGGGATC | -0.292
ACCCGCAC | 0.129
TGATTGCA | 0.153
ACACAATC | -0.0336

Sequence | PBM E-score
CGAGAATC | 0.0685
ATCGACCA | -0.264
CGTCTAGC | 0.00596
AATAAGAC | -0.112
AAGCCCGA | -0.0871
GGATTAAC | 0.0943
CCCGCCTA | -0.0356
CTGGACCA | -0.0691
AAGAGATG | -0.145
AAGTTCGG | -0.0699
AAGGATGA | -0.0513
CATGCACG | 0.133
CACTATTC | 0.0647
GCTACAAA | -0.0267
ATGCAACC | 0.0262
ACGTTGAA | -0.0226
TGTCAGAA | -0.0187
AGGTAGGG | -0.261
AAACATCA | -0.00388
AGACGTTA | 0.00873
GACCTTGA | -0.162
AGAATTCC | 0.0919
ATCGGCTC | 0.136
ACTTCGAG | 0.101
GGTGCCAA | 0.057

Sequence | PBM E-score
ACACTTGG | -0.00274
AATTCGAA | 0.0624
GATAGTTA | -0.112
CTGGTCGA | -0.275
AGGAGCAA | -0.247
CTAGCTCA | -0.138
CATGGATC | -0.11
AGTATGCC | 0.128
GCCCGATA | -0.107
CCGCAAAG | 0.181
CACGTGAG | 0.231
ACGTCTCA | 0.0523
GCACATAC | 0.0469
ACGGTTTC | -0.00454
ACCTAGCA | -0.213
CCAAAGGC | 0.0337
AAGATATG | 0.213
GAAGGCAA | 0.218
TCCGAGCA | 0.0474
AATCCAGG | -0.0627
AATGCGAT | -0.0204
ACAGACGA | -0.0204
CGTAGTAA | 0.041
AGGGCCAA | -0.203
GAGTGGAA | -0.00653

Sequence | PBM E-score
CCGTCACG | -0.0442
AGCCAATC | -0.177
GCTATGAC | -0.135
ACGTCAGC | -0.0506
CCACTCTC | -0.0818
AGGCTCGA | 0.087
CCGACCAA | -0.0204
GGGCAGCA | -0.122
ACAGTCGC | -0.109
AGCCCATC | -0.0701
ACGACACT | -0.109
ACGTCGTA | -0.167
ATTCTAGA | 0.133
ACGAGTGG | -0.143
AGTGATTG | -0.018
CCGGTGGA | -0.22
CCACGGCG | 0.478
TGGCCCAA | 0.0351
GCAAGACA | 0.124
GTTAATAA | 0.151
CTGTCGAC | -0.13
CCAGGTCG | -0.263
GAGGAAAA | -0.0008
CGATCATA | 0.00595
CAGGTCAA | -0.183

Sequence | PBM E-score
GGACGCCC | -0.158
TGGTGAAA | 0.0915
AACGGTCT | -0.21
AAACACTG | 0.0749
AAGGTAGG | -0.222
CGCCGCCC | 0.346
CTGCAGCA | -0.12
CTTCAGTA | 0.0999
CAGGCAAG | -0.0138
GCATGCAA | 0.201
ATCTGCGC | 0.129
ACGCGCTA | 0.0238
TAAAACCA | 0.0806
GGATAGCA | 0.0988
CTTCCTAC | -0.225
CTGTTAGA | -0.0404
GGTCAGGA | -0.203
GGGTCTAC | -0.0721
ACCTAAAT | 0.0152
CACGGATC | 0.286
GAACCAGC | -0.0872
ATAGTGTG | 0.00158
GCACCTGC | 0.101
CTAACTTA | 0.197
GCCAAAGC | -0.142

Sequence | PBM E-score
AATGATAG | 0.073
ATCGTTTG | 0.104
GACTACAC | 0.00032
GTGAGTGA | -0.139
ACCCTAAC | -0.0563
ACTAAGCG | -0.0972
ATCGCAGA | -0.0303
TACGGAAA | 0.151
CGTGCCCA | 0.235
CACAGGGC | 0.0826
CACGGCAA | 0.469
AACATCAG | 0.0591
ATCTCAGC | -0.0455
CGCATTCC | -0.315
AAAGCCAT | 0.155
AAATGGTC | -0.035
TACCGACA | 0.0897
GCCCGTGA | -0.0631
CGGTAACA | 0.122
CCTAGATA | -0.0598
GCGAGCCC | -0.0404
AATAGTCG | -0.0177
ACACAACT | 0.0403
AGCATTGA | -0.0564
TTCGTAAA | 0.0535

Sequence | PBM E-score
AGGGAGCA | -0.403
AGCTCATA | -0.0536
GCCTAGCC | 0.0204
CGTGACCA | -0.116
CTGTAGGA | -0.0926
AGAGCCAC | 0.0143
AAGCACTT | -0.171
AAGAGGCG | 0.298
ATAGCACG | 0.129
CCGCACGA | 0.27
CTAATGAG | 0.0123
ATGTTACC | 0.0678
GTGATCAA | 0.077
AGTGCGCG | 0.0268
AAGCGGTG | -0.156
CAAATAAA | 0.256
GTGCGGGA | 0.041
ACGCGCCT | 0.34
GTGGACTA | -0.0662
GGCAGGCA | -0.0212
CCTCAAGC | -0.257
AAAACGTT | 0.0424
ACCGGATA | -0.161
CAATAGTC | -0.0133
CCCATGAC | -0.137

Sequence | PBM E-score
AAGGTATT | 0.0209
AGCCCCAA | -0.185
CCTATGTC | -0.185
CCACACTA | 0.127
AATCCAGC | -0.213
CAATTCGG | 0.145
CTGGAGAA | -0.208
GATACCCC | -0.196
ACTCATCT | -0.136
CCCCCTAG | -0.354
GAAATCGC | 0.0286
ACGCGCAG | -0.103
AACTGTTC | -0.0898
AGCGATAC | -0.089
CAGATAGG | -0.0177
CAGAAAAG | -0.0641
AAATCTCC | -0.117
AAGTCGAT | -0.0828
TCATGCAA | -0.032
